Assay results: PubChem BioAssay AID1508642 (National Center for Advancing Translational Sciences (NCATS), 2021)
The campaign covered roughly 43,000 compounds. About 200 (0.47%) were called active. About 12% were inconclusive and are not listed. Calls follow the shape of the dose curve; as a rule, active = well fitted cell-killing curve with a large enough effect; inconclusive = small, poorly fitted or top-dose-only effect, or effect the other way; inactive = flat fitted curve, though single readings scatter. The list shows a part of the results.

Assay: Cell viability qHTS assay in S16 Pmp22-F2sN cells; also: nearly all actives have a fitted effect of over 65% in size
Conditions: S16 Pmp22-F2sN Schwann cells viability, CellTiter-Glo, 24 h; series mostly up to 57.5 µM; activity change, negative = cytotoxicity: at the top concentration
Method in brief: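 Viability was measured by CellTiter-Glo luminescence (15 min, room temperature). This followed 24 h at 37 °C of compound exposure (23 nL pin transfer) in S16 Pmp22-F2sN Schwann cells, 500-1,000 per well.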
% is scaled to controls: 0 for no effect and ±100 for the full control effect.

| Structure (SMILES) | activity change, negative = cytotoxicity |
| --- | --- |
| COc1cc(NC(=O)Cn2c(=O)n(Cc3ccco3)c(=O)c3oc4ccccc4c32)cc(OC)c1 | inactive: -2.6% |
| CCOc1ccc(NC(=O)c2cc(=O)c3ccc(C)c(C)c3o2)cc1 | inactive: 2.41% |
| Cn1cnc(S(=O)(=O)N2CCC(C(=O)N3CCN(c4ccccc4F)CC3)CC2)c1 | inactive: -0.545% |
| CSc1cccc(NS(=O)(=O)c2cn(C)c(C)n2)c1 | inactive: -5.74% |
| Cc1cccc(N(CC(=O)Nc2ccccc2C(F)(F)F)S(=O)(=O)c2ccccc2)c1C | inactive: 7.3% |
| O=C(Nc1ccc(F)cc1)c1ccc2c(=O)n3c(nc2c1)CCCCC3 | inactive: -26.2% |
| COc1ccc(OC)c(C2CC(=O)Oc3c2c(=O)n(C)c2ccccc32)c1 (configuration not stated) | inactive: -13.8% |
| COc1ccc(Cl)cc1NC(=O)c1cn(C2CCCC2)c(=O)c2c1c1ccccc1n2C | inactive: -0.448% |
| COc1ccccc1C(=O)NC1(C(F)(F)F)C(=O)Nc2c1c(=O)[nH]c(=O)n2-c1ccc(F)cc1 (configuration not stated) | inactive: 5.29% |
| Cc1cccc(Cn2c(-c3cccc(Br)c3)nc3ccccc32)c1 | inactive: 0.0374% |
| CN(C)CCNC(=O)Cn1ccc2cc(S(=O)(=O)N3CCCCCC3)ccc21 | inactive: -4.35% |
| Cc1cc(Cl)ccc1OCC(=O)N(Cc1ccco1)Cc1ccccc1F | inactive: -1.02% |
| COCCCNC(=O)CSc1nc2c(sc3ccccc32)c(=O)n1CCc1ccc(OC)c(OC)c1 | inactive: 25% |
| CCOc1ccc(CNC(=O)C2CCCN(c3nnc(C)c4c(C)n(-c5ccccc5)nc34)C2)cc1 (configuration not stated) | inactive: -28% |
| CCOc1cc(C2NC(=O)c3c(sc4c3CCN(C)C4)N2)ccc1OC(=O)c1ccc(Br)cc1 (configuration not stated) | inactive: 11.8% |
| COc1ccc(-c2noc(-c3ccc(N4CCCC4)c([N+](=O)[O-])c3)n2)cc1OC | inactive: -4.74% |
| CCc1ccc(-n2nc(C)c3c(C(=O)N4CCN(c5ccccc5)CC4)cc(C)nc32)cc1 | inactive: 1.65% |
| COc1ccc(C)cc1NC(=O)c1cc2c(=O)n3cccc(C)c3nc2s1 | inactive: 9.52% |
| CCC(=O)N1CCCc2cc(S(=O)(=O)N3CCC(C(=O)NCc4ccc(F)cc4)CC3)ccc21 | inactive: -3.41% |
| Cc1cccc(C)c1-n1ncc(C(=O)O)c1C1CCN(C(=O)OC(C)(C)C)CC1 | inactive: 23.1% |
| Cc1nn2c(C)c(C(=O)NC(C)c3ccccc3)cnc2c1-c1ccc(F)cc1 (configuration not stated) | inactive: -16.9% |
| COc1ccc(NC(=O)c2ccco2)cc1NC(=O)C(C)(C)Oc1ccc(Cl)cc1 | inactive: 4.54% |
| CCOc1ccc(NC(=O)Cn2cnc3sc(C)c(S(=O)(=O)N4CCN(c5ccccc5OC)CC4)c3c2=O)cc1 | inactive: -19.9% |
| N#Cc1ccc(-c2cccs2)nc1SCc1ccc(Br)cc1 | inactive: 3.05% |

| Structure (SMILES) | activity change, negative = cytotoxicity |
| --- | --- |
| COc1ccc(-n2nc(C(=O)N3CCCCC3C)c3c4ccccc4n(C)c3c2=O)cc1Cl (configuration not stated) | inactive: 6.49% |
| COc1ccc(CNC(=O)CN(C)S(=O)(=O)c2ccc3nc(C)sc3c2)cc1 | inactive: -0.159% |
| COc1cccc(C(=O)Nc2ccccc2C(=O)OCc2cc(=O)n3c4c(sc3n2)CCCC4)c1 | inactive: 1.41% |
| CC(C)N(C(=O)CSc1cn(CC(=O)N2CCCCCC2)c2ccccc12)C(C)C | inactive: -1.44% |
| Cc1coc2c(C)c3oc(=O)c(CCC(=O)NCCc4ccccc4F)c(C)c3cc12 | inactive: 29.5% |
| Cc1cc2c(cc1S(=O)(=O)Nc1cccc(C#N)c1)OCC(=O)N2 | inactive: -4.76% |
| COc1ccc(NC(=O)Cn2c(=O)n(CCC(=O)NCC3CCCO3)c(=O)c3cc(OC)c(OC)cc32)cc1 (configuration not stated) | inactive: -1.97% |
| CN(Cc1ccccc1)C(=O)c1ccc(CSc2nc3cccnc3n2Cc2ccccc2F)cc1 | inactive: -10.3% |
| COc1ccccc1Nc1sc(C(=O)c2ccc(F)cc2)c(N)c1S(=O)(=O)c1ccc(C)cc1 | inactive: -0.278% |
| COc1cccc(/C=C/c2nc(C#N)c(N3CCC(C(N)=O)CC3)o2)c1 | inactive: 2.98% |
| CCOc1ccc(CCNC(=O)c2cn(-c3ccc(OC)cc3)c(=O)c3ccccc23)cc1OCC | inactive: 6.23% |
| Cc1ccc(C2C=C(c3ccccc3)Nc3nc(NS(=O)(=O)c4ccccc4)nn32)cc1 (configuration not stated) | inactive: 9.22% |
| O=C(Cn1nnnc1-c1ccccc1F)Nc1ccc(OC(F)(F)F)cc1 | inactive: 1.59% |
| COc1ccc(CNC(=O)CCc2c(C)nc3c(c(C)nn3-c3ccccc3)c2C)cc1 | inactive: -2.74% |
| CCOC(=O)c1c(C)n(-c2ccc(OC)cc2)c2ccc(OC(=O)COc3ccccc3)cc12 | inactive: -18% |
| O=C(CSc1nccn1Cc1ccc(F)cc1)Nc1nc2ccccc2s1 | inactive: -9.84% |
| CCN(Cc1ccccc1)C(=O)C1CCN(S(=O)(=O)c2ccc3c(c2)CCCN3C(C)=O)CC1 | inactive: -2.76% |
| COc1cc(NC(=O)C2=CC(c3ccc(F)cc3)=NS(=O)(=O)N2C)cc(OC)c1OC | inactive: 1.73% |
| CC(C)c1nnc(N2C(=O)c3oc4ccccc4c(=O)c3C2c2ccccc2F)s1 (configuration not stated) | inactive: 10% |
| Cc1ccc(C2CC(=O)Nc3cc4c(cc32)OCCO4)cc1Br (configuration not stated) | inactive: -1.52% |
| COCCNC(=O)Cn1ccc2cc(S(=O)(=O)N3CCCCCC3)ccc21 | inactive: 0.188% |
| CCn1c(=O)c2c(nc3n2CCN3c2ccc(OC)cc2)n(C)c1=O | inactive: -29.8% |
| Cc1ccc(-c2noc(CCC(=O)N(C)c3ccccc3F)n2)cc1 | inactive: -1.88% |
